Measurements reported in article PMC4336329 (PLoS ONE, 2015).
In all, about 310,000 compounds went through this assay and about 14,000 (4.5%) showed an effect of 50% or more. Effects have a minus sign here. Some of the results follow.

The molecules below were run against human ether-à-go-go-related gene (hERG) potassium channel (human, UniProt Q12809) (assay: primary screen, population patch clamp on CHO cells stably expressing hERG).
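Further: peak tail current of the secondary pulse compared with the same well before compound.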

human ether-à-go-go-related gene (hERG) potassium channel, sequence (Q12809 whole entry, looked up): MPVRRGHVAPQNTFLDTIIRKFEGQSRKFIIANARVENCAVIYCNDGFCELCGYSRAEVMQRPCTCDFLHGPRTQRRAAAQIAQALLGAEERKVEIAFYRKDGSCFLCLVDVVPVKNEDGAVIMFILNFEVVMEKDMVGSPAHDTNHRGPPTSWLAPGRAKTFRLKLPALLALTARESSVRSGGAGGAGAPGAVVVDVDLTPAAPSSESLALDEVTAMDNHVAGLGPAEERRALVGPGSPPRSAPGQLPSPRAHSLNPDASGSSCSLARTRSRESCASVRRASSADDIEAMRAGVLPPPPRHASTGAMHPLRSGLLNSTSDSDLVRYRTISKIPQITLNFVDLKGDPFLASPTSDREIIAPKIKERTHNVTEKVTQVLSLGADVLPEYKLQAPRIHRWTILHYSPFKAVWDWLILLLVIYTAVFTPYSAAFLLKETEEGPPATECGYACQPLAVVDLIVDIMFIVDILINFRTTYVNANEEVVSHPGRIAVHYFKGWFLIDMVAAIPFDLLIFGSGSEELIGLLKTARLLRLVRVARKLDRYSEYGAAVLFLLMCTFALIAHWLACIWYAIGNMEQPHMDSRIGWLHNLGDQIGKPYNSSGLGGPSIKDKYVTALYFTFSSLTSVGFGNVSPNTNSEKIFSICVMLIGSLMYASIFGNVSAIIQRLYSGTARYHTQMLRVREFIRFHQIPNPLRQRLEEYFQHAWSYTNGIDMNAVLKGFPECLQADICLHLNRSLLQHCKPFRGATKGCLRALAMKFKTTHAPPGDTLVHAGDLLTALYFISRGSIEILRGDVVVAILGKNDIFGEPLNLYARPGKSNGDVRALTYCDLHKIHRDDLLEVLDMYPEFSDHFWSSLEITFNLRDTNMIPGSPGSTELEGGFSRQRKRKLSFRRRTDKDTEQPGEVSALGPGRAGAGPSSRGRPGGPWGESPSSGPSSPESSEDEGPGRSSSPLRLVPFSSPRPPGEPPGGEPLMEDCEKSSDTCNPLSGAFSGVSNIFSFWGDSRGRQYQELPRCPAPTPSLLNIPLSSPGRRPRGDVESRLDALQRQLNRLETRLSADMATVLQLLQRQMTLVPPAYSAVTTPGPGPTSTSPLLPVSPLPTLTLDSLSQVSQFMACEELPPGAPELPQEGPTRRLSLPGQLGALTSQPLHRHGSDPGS

SMILES	hERG current change (%, negative = inhibition) at 10uM [%]
Cc1ccc2nc(N3CCN(C(=O)c4ccco4)CC3)c3nncn3c2c1	-16
Cc1cc(N2CCCC2=O)ccc1S(=O)(=O)NCCOc1ccccc1	1.37
CCC(=O)Nc1ccccc1-c1nnn(CC(=O)N2c3ccccc3CC2C)n1 (centres unmarked)	4.52
O=C1CNC(=S)N1C1CCCCCC1	15.5
C=CCCN(C(C(=O)OC)C(C)C)S(=O)(=O)c1ccccc1Br (centres unmarked)	-2.3
CCC(=O)Nc1nc(-c2cc([N+](=O)[O-])cs2)cs1	10.3
Cc1ccc(S(=O)(=O)N(C)c2ccc(N)cc2)cc1	-4.15
COc1ccc(CNC(=O)c2csnn2)cc1	-29.1
Cc1ccc2[nH]c(=O)c(-c3nc4ccccn4c3NCc3ccco3)cc2c1	-12.3
CCN(CC)S(=O)(=O)c1cccc(NC(=O)c2cc(-c3cccs3)nn2-c2ccccc2)c1	19.4
COc1ccccc1-n1cnnc1SCC(=O)Nc1cccnc1Cl	0.462
COc1ccc(/C=C(/NC(=O)c2ccccc2)C(=O)N/N=C/c2cccs2)cc1OC	12.9
O=C(Nn1nnnc1Nc1ccccc1)C12CC3CC(CC(C3)C1)C2	7.46
O=C1CSC(c2ccc(Cl)cc2Cl)N1c1ccccn1 (centres unmarked)	26
OC1(c2cccc(C(F)(F)F)c2)CCN(c2ccc(-c3ccccc3)nn2)CC1	6.04
Cc1ccc(CCNC(=O)C2CCC(=O)N2Cc2ccc(F)cc2)cc1 (centres unmarked)	6.62
COc1ccc(-c2c(C)nc3c(-c4ccc(F)cc4)cnn3c2N)cc1	22.8
O=C(c1ccccn1)c1ncc(C(F)(F)F)cc1Cl	17.7
CCCn1c(=NC(=O)CS(=O)(=O)c2ccccc2)sc2cc(S(C)(=O)=O)ccc21	-4.48

SMILES	hERG current change (%, negative = inhibition) at 10uM [%]
CC(C)n1c(N2CCN(C(=O)Nc3ccccc3)CC2)nc2ccccc21	-14.6
COc1ccc(C(=O)c2cn[nH]c2-c2cc(Cl)ccc2O)cc1	-16
CS(=O)(=O)N1CCN=C1SCc1ccc(F)cc1	14.7
CCNC(=O)COC(=O)CCNC(=O)c1ccc(Cl)cc1	23.9
CC(=O)Nc1cccc(-c2nc3ccc(NC(C)=O)cc3s2)c1	-1.41
O=C(CCc1nnc(CCCCc2ccccc2)o1)N1CCN(CCO)CC1	-0.0459
CN(C)CCCO/N=C(\c1ccccc1)c1ccncc1.O=C([O-])C(=O)[O-]	5.25
O=S(=O)(Nc1nc2ccccc2nc1Nc1ccc2c(c1)OCO2)c1ccccc1	8.88
COc1ccccc1C(=O)N/N=C(\C)CC(=O)Nc1ccc(Nc2ccccc2)cc1	-4.31
COc1ccc(-c2cc(C(=O)Nc3c(C)nn(Cc4ccc(Cl)cc4)c3C)no2)cc1	-6.89
COCCn1c(-c2cccs2)nc2nc3ccccc3nc21	-11.2
CCCC[C@@H]1C[C@H]1[C@@H](NC(=O)c1ccccc1)c1ccccc1C(F)(F)F	3.61
Cc1ccc(-n2ncc3c(NCCCN4CCOCC4)ncnc32)c(C)c1	-10.3
O=C(CC(NCCN1CCOCC1)C(=O)O)Nc1cccc(Cl)c1 (centres unmarked)	26
Cc1ccccc1C(=O)NC(=S)Nc1ccc(N2CCOCC2)cc1	27.8
COC(=O)c1sc(NC(C)=O)c(C(=O)OC)c1C	-0.0772
O=C(Nc1cc(C(F)(F)F)ccc1N1CCOCC1)c1ccc(F)cc1	5.04
CC(=O)C1=NN(c2ccccc2)C(c2cccs2)N1c1ccc(N(C)C)cc1 (centres unmarked)	-2.44
O=C(CS(=O)(=O)c1cn(Cc2cccc(F)c2)c2ccccc12)N1CCCCC1	-6.94

SMILES	hERG current change (%, negative = inhibition) at 10uM [%]
O=C(O)/C=C/C(=O)Nc1cccc(C(F)(F)F)c1	7.79
C=C1CCC[C@]2(C)C[C@H]3OC(=O)C(CN4CCOCC4)[C@H]3C[C@@H]12 (some centres unmarked)	17.7
O=[N+]([O-])c1cc(S(=O)(=O)N2CCOCC2)ccc1OCc1cccc(Cl)c1	1.31
Cc1ccc(S(=O)(=O)NCC2CCC(C(=O)N3CCC4(CC3)OCCO4)CC2)cc1 (centres unmarked)	-10.5
CCOC(=O)Cc1csc(NC(=O)/C=C/c2ccc(Br)o2)n1	-23.1
CCOc1ccc(NC(=O)NC(=O)N(C(C)C)S(C)(=O)=O)cc1	18.2
Cc1cc(/C=C2/NC(=O)N(Cc3ccccc3F)C2=O)c(C)n1C(C)C	-0.289
C1CN(c2nc3nonc3nc2N2CCSCC2)CCO1	-2.02
CC(C)C(NC(=O)c1ccccc1)C(=O)NC1CCCc2ccccc21 (centres unmarked)	15
COCCCNC(=O)c1ccc(-c2nc3ccccc3nc2-c2ccccc2)cc1	0.599
CCc1ccc2nc(-c3cccc(C)c3)nc(SCC(=O)NCC3CCCO3)c2c1 (centres unmarked)	-5.79
CCN(CC)S(=O)(=O)c1cc([N+](=O)[O-])ccc1N1CCC(C(N)=O)CC1	-15.1
CC(C)COP(=O)(OCC(C)C)C(O)c1ccc(N(C)C)cc1 (centres unmarked)	13.9
COc1ccc(N2C(=O)CS/C2=C\[N+](=O)[O-])cc1	8.52
Cn1nnc(NC(=O)c2ccc3ccccc3c2)n1	5.99
Cc1cc(C)c2nc(N3CCCN(C(=O)c4cnccn4)CC3)c(C#N)cc2c1	-38.5
N#Cc1ccc(CSc2nnc(-c3cccc(S(=O)(=O)N4CCCCC4)c3)o2)cc1	-2.65
CCCCNC(=O)c1ccc(CS(=O)(=O)Cc2ccccc2F)o1	-3.6
